In PubChem BioAssay AID1466 (National Center for Advancing Translational Sciences (NCATS), 2008):
In all, about 200,000 compounds went through this assay and about 10 (0.005%) were called active. The inconclusive results got no clear call from the source; some entries with a clear call stand among them for comparison. The call rests on the fitted dose curve; in most records, active means well fitted inhibition curve with a large enough effect; inconclusive means small, poorly fitted or top-dose-only effect, or effect the other way, or another doubt; inactive means no such curve, though single readings can be large or run the other way. Potencies beside an inconclusive call are fits to weak or partial responses and may not hold up.

The compounds below were run against Lysosomal alpha-glucosidase (Homo sapiens) (UniProt P10253) (assay: qHTS Assay for Inhibitors of Human alpha-Glucosidase as a Potential Chaperone Treatment of Pompe Disease). Details: purified human GAA, 4-MU-alpha-glucoside fluorescence; activity change, negative = inhibition: at 76.9 µM (top of the series) unless noted.
Outline: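 Human alpha-glucosidase, 4 nM, pre-mixed with test compounds before 400 uM 4-methylumbelliferyl substrate; 20 min room temperature at pH 5.0. Fluorescence read after pH 10 stop; AC50 values from Hill-equation fits.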
Potency means the concentration at half of the fitted maximal effect; tags describe the fitted curve by direction and shape.
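Wherever activity change, negative = inhibition is given: plate controls were uninhibited enzyme wells for no effect and no-enzyme background for full effect.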

Structure (SMILES)	Potency	activity change, negative = inhibition
Nc1cc(N)nc(SCC(=O)NNC(=O)Cc2ccccc2)n1	inconclusive: 2.51 µM [activator, partial curve, poor fit]	–
O=C(O)c1ccc2oc(SCC(=O)N3CCCCC3)nc2c1	–	inconclusive: -24.9% [inhibitor]
CC(=O)O[C@H]1C[C@@]2(C)[C@@H](C[C@@H](O)[C@H]3[C@@]4(C)CC[C@@H](O)[C@@H](C)C4CC[C@@]32C)/C1=C(\CCC=C(C)C)C(=O)O (stereo not given in full)	–	inconclusive: -5.35% [inhibitor] [at 15.4 µM]
Cn1c(C(=O)N2CCc3ccccc3C2)cc2c(=O)n3ccccc3nc21	inconclusive: 31.6 µM [activator, partial curve]	–
Cn1cc(CCNC(=O)CC2C(=O)NCCN2Cc2cccc(Oc3ccccc3)c2)cn1 (stereo not given)	–	inconclusive: 12.3% [activator]
O=C(CSc1nnnn1C1CCCCC1)N1CCOCC1	–	inconclusive: 13.4% [activator]
Cc1ccc(Cn2nc(C)c(NC(=O)c3cc(C)no3)c2C)cc1	inconclusive: 56.2 µM [inhibitor, single point]	–
Cc1cc(C)cc(C(=O)NCC(=O)OCC(=O)N2CCN(S(=O)(=O)c3ccc4ccccc4c3)CC2)c1	inconclusive: 28.2 µM [inhibitor, single point]	–
CC(Cl)C(=O)Nc1cc(C(C)(C)C)nn1-c1ccccc1 (stereo not given)	inconclusive: 50.1 µM [inhibitor, single point]	–
CC(C(=O)O)N1C(=O)c2cccc3cccc1c23 (stereo not given)	inconclusive: 50.1 µM [inhibitor, partial curve, poor fit]	–
CC(C)(C)NC(=O)CN(C(=O)C1(C)CC(=O)N=C2C=CC=CN21)C1CCCC1 (stereo not given)	inconclusive: 56.2 µM [activator, single point]	–
O=[N+]([O-])c1cccc(Nc2c3ccccc3nc3ccccc23)c1	inconclusive: 28.2 µM [activator, partial curve]	–
CCOC(=O)c1c(N2C(=O)Nc3ccccc3N2O)n[nH]c1-c1cccc(OC)c1	–	inconclusive: 14.1% [activator]
COC(=O)CN1C(=O)Nc2ccc(Br)cc2C1c1ccccc1 (stereo not given)	inconclusive: 44.7 µM [inhibitor, single point]	–
Cc1nnc(C)n1N	inconclusive: 0.178 µM [inhibitor, full curve, poor fit]	–
COc1ccc(C2SCC(=O)N2CCCN(C)C)cc1 (stereo not given)	inconclusive: 0.158 µM [inhibitor, partial curve, poor fit]	–
COC(=O)Cc1ccc(NC(=O)c2ccc(Br)o2)cc1	–	inconclusive: -16.6% [inhibitor]
NS(=O)(=O)c1ccc(NC(=O)C2C3C=CC(C3)C2C(=O)O)cc1 (stereo not given)	inconclusive: 25.1 µM [inhibitor, partial curve, poor fit]	–
CC1=C(C(=O)Nc2ccccc2)C(c2ccncc2)n2nnnc2N1 (stereo not given)	inconclusive: 14.1 µM [inhibitor, partial curve, poor fit]	–
CCOc1ccc(NC(=O)Nc2cccs2)cc1	inactive	–
O=C(CSc1nnc(Cc2cccs2)n1-c1ccccc1)NC1CCCCC1	inconclusive: 50.1 µM [inhibitor, single point]	–
O=C(CSc1nnc2c(Cl)cc(Cl)cn12)N1CCN(S(=O)(=O)c2ccccc2)CC1	inconclusive: 44.7 µM [inhibitor, partial curve]	–

Structure (SMILES)	Potency	activity change, negative = inhibition
O=C(CCSc1ccc(Cl)cc1)N1CCN(c2ncccn2)CC1	inconclusive: 50.1 µM [inhibitor, single point]	–
Cc1cccc2nc(-c3cccc(NC(=O)c4ccc(Cl)cc4)c3)cn12	inconclusive: 28.2 µM [inhibitor, single point]	–
CCCCNC(=O)CCNS(=O)(=O)c1ccc(Br)cc1	inconclusive: 25.1 µM [inhibitor, single point]	–
O=C(COC(=O)c1ccccn1)c1ccc(Br)cc1	inconclusive: 0.794 µM [inhibitor, full curve, poor fit]	–
Cc1cc(Nc2cc(C)on2)n2ncnc2n1	inconclusive: 5.01 µM [inhibitor, single point]	–
O=c1[nH]c(O)c(/C=C2\C=Nc3ccccc32)[nH]1	inconclusive: 10 µM [inhibitor, full curve]	–
C(=N\Nc1nc(-c2ccccc2)cs1)/c1ccco1	inconclusive: 4.47 µM [inhibitor, single point]	–
Cc1cc(C)nc(SCc2nc3ncccn3c2Br)n1	inconclusive: 25.1 µM [activator, single point]	–
O=C(/C=C/c1ccccc1)N1CCC(Cc2ccccc2)CC1	inconclusive: 56.2 µM [inhibitor, single point]	–
COc1ccc(CCNC(=O)c2cc(C(=O)c3cc(Cl)ccc3O)cn(CCc3ccc(OC)cc3)c2=O)cc1	inconclusive: 12.6 µM [inhibitor, partial curve]	–
CCOC(=O)c1c(CN(C)C)oc2cc(CN(C)C)c(O)c(CSc3ccccc3)c12	inconclusive: 56.2 µM [inhibitor, partial curve]	–
CCOC(=O)C1CCCN(C(=O)CSc2ccc(Br)cc2)C1 (stereo not given)	inactive	–
COc1ccc(OC)c(-n2c(SCC(=O)Nc3cc(C)on3)nnc2-c2c[nH]c3ccccc23)c1	inconclusive: 6.31 µM [inhibitor, full curve]	–
O=C(CSCc1ccc([N+](=O)[O-])cc1)NCCSCc1ccccc1	inconclusive: 56.2 µM [inhibitor, single point]	–
COc1ccc(C(C)=O)cc1COC(=O)c1cccnc1SC	inconclusive: 56.2 µM [inhibitor, single point]	–
CC(C)CN(CC(C)C)CC(O)COc1ccccc1Br (stereo not given)	inconclusive: 7.08 µM [inhibitor, full curve]	–
COc1cccc(N=Nc2c(N)[nH]n3c(=O)c4c(nc23)CCCC4)c1	inconclusive: 39.8 µM [inhibitor, single point]	–
Cc1cccc(NC(=S)Nn2cnnc2)c1C	inconclusive: 11.2 µM [inhibitor, single point]	–
CC(C)CC(=O)NC(=S)Nc1ccc(F)cc1F	–	inconclusive: 12.7% [activator]
CC(C)c1ccc(OCC(=O)N2CCCCCC2)c(Br)c1	inconclusive: 0.178 µM [activator, full curve, poor fit]	–
COc1ccc(CC2(CO)CCN(Cc3ccc(OC(F)(F)F)cc3)CC2)cc1	–	inconclusive: -16.4% [inhibitor]
Cc1cccc(S(=O)(=O)c2c(N)n(-c3ccccc3)c3nc4ccccc4nc23)c1	inconclusive: 35.5 µM [activator, partial curve]	–

Structure (SMILES)	Potency	activity change, negative = inhibition
CC(=O)Nc1ccc(NC(=O)CSc2nc(C)nc3sc(C)c(C)c23)cc1	inconclusive: 17.8 µM [inhibitor, partial curve]	–
COc1ccc(CCN(Cc2cc3ccc(C)cc3n3nnnc23)C(C)=O)cc1OC	inconclusive: 39.8 µM [inhibitor, single point]	–
O=C1CCC(=O)N1CN(Cc1ccco1)CN1C(=O)CCC1=O	–	inconclusive: -15.7% [inhibitor]
COc1ccc(/C=C(\C#N)C(=O)ONC2=NCCCCC2)cc1	inconclusive: 31.6 µM [inhibitor, single point]	–
CCOC(=O)NNC1CC(=O)N(c2ccccc2)C1=O (stereo not given)	inconclusive: 50.1 µM [inhibitor, single point]	–
C=C(c1ccc(O)cc1)c1ccc(O)cc1	inactive	–
O=C(c1ccc2c3c(cccc13)CC2)C1CCCN(Cc2cccnc2)C1 (stereo not given)	inactive	–
O=c1[nH]c(N/N=C/c2cc3c(cc2[N+](=O)[O-])OCO3)nc2ccccc12	inconclusive: 2.51 µM [inhibitor, partial curve]	–
CCNC(=S)N1CCN(C(c2ccccc2)c2ccccc2)CC1	inconclusive: 6.31 µM [inhibitor, partial curve, poor fit]	–
O=C(CSc1nc2ccccc2n1CC(=O)N1CCCC1)N1CCN(C(=O)c2ccco2)CC1	inconclusive: 11.2 µM [inhibitor, single point]	–
C/C(=N\NC(=O)c1ccccc1F)c1ccc2c(c1)Nc1ccccc1S2	inactive	–
O=C(CSc1ccc(Cl)cc1)Nc1ccc(N2CCN(c3ccccc3)CC2)c(F)c1	inconclusive: 2 µM [activator, full curve, poor fit]	–
COc1ccc(N(CC(=O)NCCC2=CCCCC2)S(=O)(=O)c2ccc(C)cc2)cc1OC	inconclusive: 7.08 µM [inhibitor, full curve]	–
COc1cc(/C=N/Nc2ccccc2C(F)(F)F)ccc1O	inactive	–
CCOC(=O)C1(Cc2ccc(OC)cc2)CCN(C(=O)c2ccc3[nH]ccc3c2)CC1	–	inconclusive: -17.2% [inhibitor]
CS(=O)(=O)c1nc(S(=O)(=O)c2ccc(Cl)cc2)c(NCc2ccccn2)s1	inconclusive: 3.16 µM [inhibitor, partial curve, poor fit]	–
Cc1ccccc1NC(=O)c1ccc(F)c(S(=O)(=O)N2CCN(c3ccccn3)CC2)c1	inconclusive: 50.1 µM [inhibitor, single point]	–
Cc1cc(NC(C)C)n2c(nc3ccccc32)c1C#N	inconclusive: 35.5 µM [activator, partial curve]	–
Cc1cc(NCc2ccccn2)n2c(nc3ccccc32)c1C#N	–	inconclusive: 20.6% [activator]
C=CCNC(=S)Nc1ccc2nc(C)oc2c1	inconclusive: 0.316 µM [activator, partial curve]	–
O=C(CSc1nc2ccccc2c(=O)n1-c1ccc(F)cc1F)c1c[nH]c2ccccc12	inconclusive: 2.51 µM [inhibitor, full curve, poor fit]	–
